Some of the results follow. These are noisy estimates, calculated here from bound and input reads.
target: T1, Pho4 (S. cerevisiae) (UniProt P07270); assay: relative binding free energy (BET-seq); higher = weaker binding; conditions: reference: library average
T1 sequence: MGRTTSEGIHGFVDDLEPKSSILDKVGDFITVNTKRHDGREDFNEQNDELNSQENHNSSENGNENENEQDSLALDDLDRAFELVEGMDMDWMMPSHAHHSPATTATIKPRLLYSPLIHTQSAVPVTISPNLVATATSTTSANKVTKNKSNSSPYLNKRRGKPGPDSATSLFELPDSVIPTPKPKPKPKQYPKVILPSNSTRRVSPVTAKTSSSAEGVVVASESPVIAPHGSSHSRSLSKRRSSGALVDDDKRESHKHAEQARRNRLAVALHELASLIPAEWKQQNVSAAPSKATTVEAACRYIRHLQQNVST

Sequence | relative binding free energy [kcal/mol]
TATTCCACGTGATGTG | 0.08
CGGTGCACGTGGGTGG | -0.17
ATTAGCACGTGCTGTA | -0.16
TGTCGCACGTGAATTT | 0.44
AATTGCACGTGCGGGG | -0.08
TATTGCACGTGAGAGA | 0.22
TGGTCCACGTGTTAAG | -0.07
TAGTTCACGTGATTTG | 0.33
AATTTCACGTGGACTG | 0.18
TGTCGCACGTGGCCTT | 0
AGGGACACGTGTTTAA | 0.15
GACCGCACGTGGGTGG | -0.19
ATGTGCACGTGGCTGT | -0.08
CTGAGCACGTGGTTAG | -0.24
TAGTACACGTGGTTGG | 0.08
AGTGTCACGTGAGGTC | 0.12
GTATGCACGTGGCTTG | -0.12
AGGTTCACGTGTAGGC | 0.32
TTTGGCACGTGGGGAT | -0.07
TGATTCACGTGTAAGC | 0.52
TTTAACACGTGTTAGG | -0.06
GAGTTCACGTGGTTCG | 0.17
AATAGCACGTGTGTGC | -0.07
ATATTCACGTGGAGAG | 0.11
GTACTCACGTGTGTGG | 0.2
ATGTACACGTGCGGGT | 0.06

Sequence | relative binding free energy [kcal/mol]
TTCGTCACGTGGTGAA | 0
TTCATCACGTGTGGTG | 0.14
TGTGGCACGTGCCCGG | -0.25
GGGTCCACGTGCGTAG | 0
AGATTCACGTGTGGCG | 0.21
ATAGACACGTGTGAAG | 0.1
GTGGTCACGTGTGCAA | 0.16
TGGTGCACGTGGGTGA | -0.21
TAGGGCACGTGTTCGT | -0.19
TGATGCACGTGGGAAG | 0.04
TCGTACACGTGGTTTG | 0.06
ATGGCCACGTGTTGTA | -0.02
TTGCTCACGTGTGGCG | 0.21
GGGGCCACGTGTTCGT | -0.1
GGAGGCACGTGATATT | 0.15
GTAAGCACGTGTTTTA | -0.04
AGCGGCACGTGTAACG | 0.21
AGATGCACGTGGTAAT | -0.02
GTGGGCACGTGCGGGT | -0.07
ACGGTCACGTGGGTGT | -0.03
CGCGGCACGTGTCGGG | 0.05
TTTCGCACGTGATTGA | 0.07
GGGGACACGTGGGGTC | -0.1
TGCCTCACGTGGGTTG | -0.05
GGTTTCACGTGAGTTA | 0.47
ATGGTCACGTGTGACG | 0.1

Sequence | relative binding free energy [kcal/mol]
GTATACACGTGAGTGG | 0.21
CTAAGCACGTGGTGTA | -0.15
GTTGTCACGTGGTCTT | 0.14
TATGACACGTGAGGAT | 0.29
GCAGGCACGTGTTGGA | -0.06
TAGATCACGTGGGTTG | -0.06
TGTTACACGTGTATAC | 0.14
AGAGGCACGTGTGAGT | 0.01
TCATTCACGTGGTGGT | 0.28
AGTTTCACGTGCGGAG | 0.24
CAGGTCACGTGTTTAG | 0.27
GCTAGCACGTGGAAGT | 0.17
AGGTGCACGTGTGCGG | 0.05
GTGAGCACGTGCATGT | -0.08
GAGAACACGTGATGGG | 0.27
AGGGACACGTGGCGGC | -0.02
ATTGACACGTGATTGG | 0.01
TGGTGCACGTGTCAGG | -0.05
GTGGTCACGTGGGTGG | 0.07
AAGTGCACGTGTTTGA | -0.13
AACGGCACGTGTGTAG | -0.11
TATTTCACGTGGAGTA | 0.19
GGGACCACGTGGGGGG | -0.28
GTGACCACGTGGTTGT | -0.07
AAGTGCACGTGGAGAA | 0.07
TAGTCCACGTGTCGGT | 0.06

Sequence | relative binding free energy [kcal/mol]
GCATTCACGTGGGATG | 0.26
CGTAGCACGTGGGATG | -0.24
ATAGTCACGTGGTGGT | -0.13
GTCTCCACGTGAGGTT | 0.35
ATAATCACGTGGAGGT | 0.03
TTTAGCACGTGGCCGG | -0.09
GATTTCACGTGTGGTA | 0.3
GATTTCACGTGCGAGT | 0.44
GGCATCACGTGGGATG | 0.08
AAAGACACGTGGGGTG | -0.18
TTTAACACGTGTCTAG | -0.03
TGGAACACGTGACATT | 0.36
TGGAGCACGTGAATAG | 0.17
TAAGTCACGTGGTGGG | 0.03
AGTTACACGTGGGCTG | 0.05
TCAGTCACGTGTGCTG | 0.18
GTGAGCACGTGGTGCA | -0.13
TGTCACACGTGCGGGT | -0.15
ATTCGCACGTGGTGTG | -0.19
GTATTCACGTGTCGCA | 0.44
AGATGCACGTGAAGGG | 0.2
GTGTTCACGTGCTGGT | 0.2
TGAGTCACGTGCTTAT | 0.12
GTTTCCACGTGGTAGA | 0.07
GTACTCACGTGGTCGT | 0.17
CTGTACACGTGGTGGA | 0.07

Sequence | relative binding free energy [kcal/mol]
GTTCGCACGTGTAATG | 0.17
GGTACCACGTGGTTGC | 0.1
TTAGTCACGTGTTCGT | -0.14
TTTTCCACGTGTCGGG | 0.18
TGCTTCACGTGGAGGC | 0.22
GTGATCACGTGAAGGG | 0.33
AAGTTCACGTGTGTGG | 0.27
CTGATCACGTGGGGAT | 0.11
TAGGGCACGTGGTAAG | -0.07
AAAATCACGTGGTGTA | 0.08
GTGATCACGTGTATAG | 0.18
TGGCGCACGTGTATTT | 0
TTGTCCACGTGAAGTG | 0.3
GGGCGCACGTGGAGGC | -0.11
TAGTGCACGTGAGGTG | 0.3
AGTTCCACGTGTGCGT | 0.03
ATCAGCACGTGCGGGG | -0.27
ATATACACGTGTTTGT | -0.17
CAAGACACGTGGGAGG | 0.04
ACTTTCACGTGTGGGA | 0.34
GGGGCCACGTGCAAGT | 0.1
TTATGCACGTGACGTG | 0.08
GTGAACACGTGGCTTG | -0.04
TTACGCACGTGATGGT | 0.08
ATTAGCACGTGTTAAT | 0.12
GTAAGCACGTGTGGGT | 0.01

Sequence | relative binding free energy [kcal/mol]
AAAGTCACGTGGGGTC | -0.14
GTTGTCACGTGCGTTG | 0.1
CGGGTCACGTGGTTGT | -0.02
TGGGACACGTGGTGTT | 0
CGTGGCACGTGAGGAG | 0.04
ACGGGCACGTGGGCGG | -0.28
GGTTACACGTGTAAGT | 0.23
TTGTGCACGTGATTAA | 0.11
TTCGTCACGTGTATGG | 0.12
GGACTCACGTGGTGGG | 0.21
GTACGCACGTGGGCTG | -0.3
GCGAACACGTGGGTGG | -0.04
GTGATCACGTGAGGAG | 0.21
GTAGACACGTGTTTGT | -0.03
GTTCTCACGTGAGTGT | 0.34
GGATTCACGTGTATAG | 0.31
AGGTGCACGTGCTGGT | -0.05
TTCTACACGTGTGTTA | 0.12
AGTGACACGTGGGTAT | -0.22
GTTATCACGTGAGGGT | 0.28
TGGTCCACGTGTTTGG | -0.07
TCGGTCACGTGTATTT | 0.13
GTCTACACGTGGGGTG | 0.1
ATATGCACGTGTTAGA | -0.1
TATAACACGTGTTAGA | -0.04
GTGGTCACGTGTAGAG | 0.18

Sequence | relative binding free energy [kcal/mol]
GGCATCACGTGATGTT | 0.28
AGTGTCACGTGGAGCG | 0.06
GGTGACACGTGGGGCT | -0.03
GGTGTCACGTGGCCTT | 0
TTGTACACGTGATGAA | 0.14
TATTCCACGTGGTATT | 0.04
ATGCTCACGTGCGGTA | 0.14
ATGTGCACGTGAAGGT | 0.2
ATAGACACGTGAGGTT | 0.2
GTGGGCACGTGTCGTC | 0.01
TGATACACGTGCTTGT | 0
GATGTCACGTGGTCGA | 0.09
GGAGTCACGTGCGAGT | 0.18
GTGGTCACGTGTAAAT | 0.4
CGGGTCACGTGGGTCG | -0.02
CGTAGCACGTGATGTG | 0.08
GGGTACACGTGCATGG | 0.03
ATTAGCACGTGATTAG | -0.15
AAGAGCACGTGGGAGG | -0.32
TTAACCACGTGGTTGT | -0.22
CAATACACGTGAGGGG | 0.28
ATTGACACGTGTAGCG | 0.04
AGGGTCACGTGGCGAT | 0.01
AGGTGCACGTGGCGGG | -0.08
ACGGGCACGTGGAGGG | -0.17
GGGTTCACGTGGAGCC | 0.33

Sequence | relative binding free energy [kcal/mol]
GGTAGCACGTGGTGTT | -0.04
GGCAGCACGTGGCGGT | -0.2
GTAGTCACGTGAGGAT | 0.16
GTGTTCACGTGCGAGT | 0.22
TTTTGCACGTGCTAAT | -0.1
CCGTGCACGTGATGTG | 0.08
TTGTGCACGTGGCAGC | -0.08
ATTTTCACGTGATCAG | 0.35
TGGAGCACGTGCAGGG | -0.12
CGGTTCACGTGCGGAT | 0.27
CTAGGCACGTGTTATG | -0.16
ATTTGCACGTGGAGGT | 0.06
TGCGGCACGTGTGGTA | -0.12
TGGGGCACGTGAGCAT | -0.02
CGTATCACGTGAGTTA | 0.31
TCTGACACGTGTGTTT | 0.09
TTGGGCACGTGAAAAA | 0.35
GTAGGCACGTGGGGTG | -0.17
GTATACACGTGGTCAG | 0.01
TATGTCACGTGGGGAA | -0.07
TTGGTCACGTGTGTAG | 0.13
AGTCGCACGTGGTGTG | -0.08
AGGAGCACGTGTTGAG | 0.01
TAAGGCACGTGGTTCT | -0.16
TGGGGCACGTGGCGGA | -0.14
CGTGACACGTGAGTAG | 0.11

Sequence | relative binding free energy [kcal/mol]
TGTGCCACGTGTTCGG | -0.16
GGATGCACGTGCTGGG | -0.14
TAGTGCACGTGGCAAG | -0.07
AGGGGCACGTGGTTCT | -0.2
CGTGCCACGTGGTTGG | -0.09
GGATGCACGTGTTATT | 0.03
TGTTTCACGTGACCGT | 0.51
ATCAACACGTGTGTTG | 0.07
AACGGCACGTGGTTAT | -0.16
GTAAGCACGTGTGGTC | -0.01
CGAGTCACGTGTCGGG | 0.12
TGATACACGTGATATG | 0.08
CGCGTCACGTGGGGTT | -0.08
GTATTCACGTGAGCGT | 0.49
TATGTCACGTGGTGTG | 0.05
ATGGTCACGTGTAGTT | 0.07
TTATGCACGTGTGGAT | 0.05
TTGAACACGTGAGAGG | 0.22
TGCATCACGTGTTGGA | 0.16
ACTTGCACGTGGGGGG | -0.12
AGCAGCACGTGGTGGT | -0.31
TAAAACACGTGACGGT | 0.24

From the BET-seq Pho4 binding data (Le et al. 2018)
